The other results are listed elsewhere or left out. These are noisy estimates, calculated here from bound and input reads.
Target: T1, Pho4 (S. cerevisiae) (UniProt P07270)
T1 sequence: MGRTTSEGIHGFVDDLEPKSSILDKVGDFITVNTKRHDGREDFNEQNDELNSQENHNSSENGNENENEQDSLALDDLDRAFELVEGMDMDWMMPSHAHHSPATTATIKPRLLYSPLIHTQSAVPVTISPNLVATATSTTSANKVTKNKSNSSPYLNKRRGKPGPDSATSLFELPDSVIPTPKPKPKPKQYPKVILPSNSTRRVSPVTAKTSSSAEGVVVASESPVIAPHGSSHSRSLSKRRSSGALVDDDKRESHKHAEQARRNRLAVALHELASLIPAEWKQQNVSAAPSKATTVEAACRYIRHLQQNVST
Assay: relative binding free energy (BET-seq); higher = weaker binding
Conditions: reference: library average

| Sequence | relative binding free energy |
| --- | --- |
| GTAATCACGTGGGACT | 0.25 kcal/mol |
| ATAATCACGTGTATGC | 0.07 kcal/mol |
| GGATGCACGTGGGGGT | -0.05 kcal/mol |
| TATGGCACGTGTCAAT | 0 kcal/mol |
| TTTGACACGTGAGTCT | 0.16 kcal/mol |
| TGTTTCACGTGTTCTT | 0.32 kcal/mol |
| GTTAACACGTGTTTGG | 0.18 kcal/mol |
| CATTTCACGTGGTATA | 0.22 kcal/mol |
| GATTGCACGTGGTTGA | 0.08 kcal/mol |
| TACGGCACGTGGTTTG | -0.25 kcal/mol |
| AGATACACGTGCTGGG | 0.12 kcal/mol |
| CGGTACACGTGCGTTT | 0.05 kcal/mol |
| AGTGACACGTGAGGTC | 0.21 kcal/mol |
| TTTTTCACGTGCTTTT | 0.36 kcal/mol |
| CGGTTCACGTGAGGTG | 0.39 kcal/mol |
| CCGGTCACGTGGAGGG | 0.11 kcal/mol |
| GAGGTCACGTGTAGCT | 0.17 kcal/mol |
| CGGCGCACGTGAGTTG | 0.11 kcal/mol |
| AATTGCACGTGGGTTC | -0.22 kcal/mol |
| TTTAGCACGTGGCAAG | -0.15 kcal/mol |
| GGCTGCACGTGTGGGG | 0.07 kcal/mol |
| CGGGACACGTGAGAGT | 0.29 kcal/mol |
| AAGATCACGTGATGTA | 0.27 kcal/mol |
| TCGTGCACGTGTGGGC | -0.15 kcal/mol |
| TGCTTCACGTGGTTAG | 0.24 kcal/mol |

| Sequence | relative binding free energy |
| --- | --- |
| CAGTGCACGTGCTTGG | -0.11 kcal/mol |
| GATCGCACGTGTTATT | 0.04 kcal/mol |
| GCAATCACGTGTTGGT | 0.22 kcal/mol |
| GGTATCACGTGTACAG | 0.21 kcal/mol |
| AGTTGCACGTGAAATA | 0.24 kcal/mol |
| TGGGCCACGTGGCTGT | -0.32 kcal/mol |
| TTTAACACGTGGCGTG | 0.01 kcal/mol |
| GGAGTCACGTGTTCGT | 0.16 kcal/mol |
| GTGATCACGTGCTTTA | 0.21 kcal/mol |
| CGAATCACGTGGTGTA | 0.04 kcal/mol |
| GTTGTCACGTGATACT | 0.13 kcal/mol |
| TACGGCACGTGGTCGT | -0.15 kcal/mol |
| TTGGTCACGTGGTCAG | 0.04 kcal/mol |
| GAGGGCACGTGATGAA | 0.13 kcal/mol |
| AAGAGCACGTGGTGTG | -0.16 kcal/mol |
| TAAGACACGTGTTTAT | -0.05 kcal/mol |
| TGCTTCACGTGGTATG | 0.17 kcal/mol |
| GTATACACGTGATTTG | 0.19 kcal/mol |
| GAGTGCACGTGTGTGG | 0.09 kcal/mol |
| GATTGCACGTGATTGA | 0.24 kcal/mol |
| TCTGCCACGTGTTTGT | -0.13 kcal/mol |
| ATGTGCACGTGTTGAA | 0.08 kcal/mol |
| CGGTACACGTGTATAA | 0.18 kcal/mol |
| ATAACCACGTGAGGGT | 0.13 kcal/mol |
| TATAACACGTGGGATT | -0.11 kcal/mol |

| Sequence | relative binding free energy |
| --- | --- |
| CGAGTCACGTGAGAGT | 0.28 kcal/mol |
| GTGCGCACGTGGGGCG | -0.21 kcal/mol |
| GCTTTCACGTGCGGTG | 0.24 kcal/mol |
| TTAAACACGTGTTAAG | -0.09 kcal/mol |
| GTAAACACGTGGGGAT | -0.04 kcal/mol |
| GGTAGCACGTGGAGGA | -0.01 kcal/mol |
| AGATACACGTGTACGT | 0.15 kcal/mol |
| GTCTGCACGTGAGTTG | 0.31 kcal/mol |
| AGGGACACGTGGGTTG | -0.08 kcal/mol |
| CAATGCACGTGTTTAT | 0 kcal/mol |
| TTTGTCACGTGTATCA | 0.13 kcal/mol |
| ATGAACACGTGGTTGA | -0.01 kcal/mol |
| CTAGGCACGTGGATGT | -0.08 kcal/mol |
| CGTTGCACGTGGGCTG | -0.17 kcal/mol |
| GGTTGCACGTGTTAGT | 0.17 kcal/mol |
| CTTGGCACGTGTGGTA | -0.07 kcal/mol |
| GTTTGCACGTGTGATT | 0.19 kcal/mol |
| TATGGCACGTGAAAAT | 0.09 kcal/mol |
| GGTATCACGTGTTTTG | 0.15 kcal/mol |
| AGTATCACGTGATGGC | 0.21 kcal/mol |
| CCTGGCACGTGGTTTT | -0.06 kcal/mol |
| GGCTTCACGTGGTAAT | 0.24 kcal/mol |
| GCGGACACGTGTTGTG | 0 kcal/mol |
| GATCGCACGTGCTGGG | 0.06 kcal/mol |
| ACTAACACGTGGTGGG | 0 kcal/mol |

| Sequence | relative binding free energy |
| --- | --- |
| TTTTGCACGTGATGGA | 0.13 kcal/mol |
| TGTAACACGTGCATGT | -0.13 kcal/mol |
| TGGGTCACGTGTAATA | 0.32 kcal/mol |
| CTAGGCACGTGTATTG | -0.12 kcal/mol |
| GTGATCACGTGAGTTG | 0.32 kcal/mol |
| ATGGTCACGTGGGTTA | 0.01 kcal/mol |
| TTGGCCACGTGCGAGG | -0.04 kcal/mol |
| GGGGTCACGTGTGGCG | 0.15 kcal/mol |
| CTTGACACGTGATATT | 0.22 kcal/mol |
| TTTTACACGTGTACAT | 0.17 kcal/mol |
| CTATGCACGTGTGAGG | 0.12 kcal/mol |
| ATGTACACGTGTCTTG | 0.04 kcal/mol |
| AATGGCACGTGTAAGC | 0.19 kcal/mol |
| CTTTGCACGTGGGAGG | 0.02 kcal/mol |
| TTCCTCACGTGTTTGG | 0.25 kcal/mol |
| AGTAGCACGTGCTGGT | -0.33 kcal/mol |
| TGTTGCACGTGGATAG | -0.01 kcal/mol |
| AAGGACACGTGGGCAG | -0.05 kcal/mol |
| ATGGGCACGTGTTAAT | -0.06 kcal/mol |
| TTTAACACGTGTGGTA | -0.02 kcal/mol |
| TGCTCCACGTGGGGGT | -0.1 kcal/mol |
| AGCTTCACGTGGATTG | 0.04 kcal/mol |
| ATGAGCACGTGAATTG | 0.21 kcal/mol |
| CCATGCACGTGTTTGT | -0.04 kcal/mol |
| GAGTACACGTGTGATT | 0.19 kcal/mol |

| Sequence | relative binding free energy |
| --- | --- |
| TTTGTCACGTGCCAGT | 0.09 kcal/mol |
| TTGCTCACGTGGAGTG | 0.22 kcal/mol |
| TGATACACGTGGTAGG | -0.09 kcal/mol |
| GGATGCACGTGGTGCG | -0.19 kcal/mol |
| GTCTGCACGTGAGGTG | 0.25 kcal/mol |
| TATTTCACGTGAGGCG | 0.44 kcal/mol |
| GTCATCACGTGGTGAG | 0.27 kcal/mol |
| GGTAACACGTGATATT | 0.33 kcal/mol |
| ATATGCACGTGACTTG | -0.04 kcal/mol |
| CGTGGCACGTGAATGT | 0.2 kcal/mol |
| AGGAGCACGTGAAGGC | 0.14 kcal/mol |
| TTCAGCACGTGTTGAG | -0.07 kcal/mol |
| ACGTTCACGTGGGTTT | 0.13 kcal/mol |
| AAGGGCACGTGCGCTT | -0.07 kcal/mol |
| TTGAGCACGTGAGTCT | 0.19 kcal/mol |
| AATGACACGTGCGTGT | 0.05 kcal/mol |
| AGAGTCACGTGGGGAG | 0.06 kcal/mol |
| TCTAGCACGTGGAGGT | -0.11 kcal/mol |
| TTCGTCACGTGAGGGG | 0.3 kcal/mol |
| CGTTGCACGTGAATTG | 0.46 kcal/mol |
| TTTTCCACGTGTGTGC | 0.19 kcal/mol |
| GTAGGCACGTGCTGAT | -0.12 kcal/mol |
| ATAGTCACGTGGAGGC | 0.06 kcal/mol |
| AGTAGCACGTGGTATT | -0.19 kcal/mol |
| GGTGACACGTGGGCGC | -0.19 kcal/mol |

| Sequence | relative binding free energy |
| --- | --- |
| CGTTTCACGTGATTTG | 0.3 kcal/mol |
| TTACTCACGTGGCGTG | -0.04 kcal/mol |
| GTTGACACGTGGTTTT | 0.1 kcal/mol |
| TGGATCACGTGTTTGG | 0.27 kcal/mol |
| GCAATCACGTGATTGG | 0.36 kcal/mol |
| ATTGCCACGTGTTTAA | 0.1 kcal/mol |
| GCGCTCACGTGTGGTA | 0.35 kcal/mol |
| ATCGGCACGTGGTGTT | -0.32 kcal/mol |
| GTCGACACGTGTAAGT | 0.27 kcal/mol |
| GGATTCACGTGTGACT | 0.52 kcal/mol |
| TGGATCACGTGAAGGG | 0.23 kcal/mol |
| GAGAGCACGTGGAGAG | 0.07 kcal/mol |
| GGACACACGTGGGGCG | -0.12 kcal/mol |
| CGGAGCACGTGTGTTG | -0.07 kcal/mol |
| GGAGTCACGTGTGAAA | 0.2 kcal/mol |
| TTTATCACGTGTTTTG | 0.11 kcal/mol |
| TATTGCACGTGTGAGT | 0.02 kcal/mol |
| GTTTACACGTGGGCAG | 0.1 kcal/mol |
| GGGATCACGTGTTGTC | 0.25 kcal/mol |
| GTGTTCACGTGTTTCT | 0.22 kcal/mol |
| GTGCGCACGTGGAGGA | -0.14 kcal/mol |
